{"source": "PubChem BioAssay AID588855", "about": "(National Center for Advancing Translational Sciences (NCATS), 2011)", "note": "Hit rate of the full screen: of about 410,000 compounds, about 5,000 (1.2%) were called active. This list was built around the results that the source calls inconclusive (neither active nor inactive); the mix of calls is not that of the screen. The call rests on the fitted dose curve; in most records, active means well fitted inhibition curve with a large enough effect; inconclusive means small, poorly fitted or top-dose-only effect; inactive means no such curve, though single readings can be large or run the other way. Potencies of inconclusive entries are doubtful fits and often do not repeat. Potency means the concentration at half of the fitted maximal effect; tags describe the fitted curve by direction and shape.", "data": [{"experiment": "qHTS for Inhibitors of TGF-b; further: nearly all actives have a fitted effect of over 65% in size", "settings": "HepG2 CAGA-GFP TGF-b/SMAD3 reporter, GFP fluorescence, 18 h, TGF-beta stimulated, 500 pg/mL final; series mostly up to 46.1 µM", "method_in_brief": "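Read-out: total well GFP (ex488/em500-530) summed from mean per-cell fluorescence. Cells: HEPG2 CAGA-GFP, 1% FBS DMEM, 18 h at 37 degrees C with 500 pg/mL final TGF-beta. Unstimulated wells served as the full-inhibition control; stimulated DMSO wells = 0%.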", "values": [{"compound": "COc1ccc(C(=O)CN2C(=O)c3ccccc3S2(=O)=O)cc1Br", "Potency": "inactive"}, {"compound": "COc1ccc(NC(=O)COC(=O)CCCOc2ccc(Cl)cc2Cl)cc1", "Potency": "inconclusive: 0.251 µM [inhibitor, full curve, poor fit]"}, {"compound": "CN(C)c1ccc(C(=S)N2CCN(C(=S)Nc3ccccc3)CC2)cc1", "Potency": "inactive"}, {"compound": "O=C1NC(=S)SC1=Cc1ccccc1Br", "Potency": "inconclusive: 22.4 µM [inhibitor, single point]"}, {"compound": "CN(C)CCCOc1ccc2c(c1)Sc1ccccc1CC2=O", "Potency": "inactive"}, {"compound": "COc1ccc(-n2nc3c(N4CCCC(C(=O)NCCc5ccc(C)cc5)C4)nnc(C)c3c2C)cc1", "note": "(stereo not drawn)", "Potency": "inconclusive: 25.1 µM [inhibitor, single point]"}, {"compound": "CN1CCN(C(=O)CCN2C(=O)/C(=C\\c3ccccc3F)SC2=S)CC1", "Potency": "inconclusive: 11.2 µM [inhibitor, partial curve, poor fit]"}, {"compound": "COc1ccc([C@H]2CC(=O)C=C(c3ccc(OC(F)(F)F)cc3)C2)cc1OC", "Potency": "inconclusive: 7.08 µM [inhibitor, partial curve, poor fit]"}, {"compound": "COc1ccc(/C=N/OC(=O)Nc2ccccc2OC)cc1", "Potency": "inconclusive: 28.2 µM [inhibitor, single point]"}, {"compound": "O=C(CCN1CCCCC1)c1ccc2c(c1)OCO2", "Potency": "inconclusive: 11.2 µM [inhibitor, partial curve, poor fit]"}, {"compound": "Clc1ccc(OCc2cc(-c3ccccc3)no2)c(Cl)c1", "Potency": "inconclusive: 35.5 µM [inhibitor, single point]"}, {"compound": "CCN(CC)CCCNC(=O)c1cc(-c2ccc3c(c2)OCO3)on1", "Potency": "inactive"}, {"compound": "Cc1ccc(N2C(=O)C(Cl)=C(NCCO)C2=O)c(C)c1", "Potency": "inconclusive: 1 µM [inhibitor, full curve, poor fit]"}, {"compound": "Cn1c(N)c(C(=O)COC(=O)c2ccccc2C(=O)c2ccc(Cl)cc2)c(=O)n(C)c1=O", "Potency": "inconclusive: 35.5 µM [inhibitor, single point]"}, {"compound": "COc1cc2ccccc2cc1C(=O)Nc1ccc2oc(-c3cccc(Cl)c3Cl)nc2c1", "Potency": "inconclusive: 3.98 µM [inhibitor, full curve, poor fit]"}, {"compound": "O=S(=O)(c1ccc(Cl)cc1)N1CCN=C1SCc1cccc(Cl)c1", "Potency": "inconclusive: 35.5 µM [inhibitor, single point]"}, {"compound": "Cn1c2ccccc2c2nnc(SCC(=O)NC3CCCC3)nc21", "Potency": "inactive"}, {"compound": "O=C(c1cc(-c2ccccc2Cl)nc2ccc(Br)cc12)N1CCN(c2ccccn2)CC1", "Potency": "inconclusive: 2.51 µM [inhibitor, full curve]"}, {"compound": "CCc1ccc(NC(=O)N2CC(C)Oc3ccc(C)cc32)cc1", "note": "(stereo not drawn)", "Potency": "inconclusive: 17.8 µM [inhibitor, single point]"}, {"compound": "Cc1cccc(C)c1NC(=O)COC(=O)C1CC(=O)N(Cc2ccccc2)C1", "note": "(stereo not drawn)", "Potency": "inconclusive: 6.31 µM [inhibitor, single point]"}, {"compound": "CC(C)(C)OC(=O)N1CCC(c2c(C(=O)NCCN3CCC(Cc4ccccc4)CC3)cnn2-c2ccccc2)CC1", "Potency": "inactive"}, {"compound": "CC(Nc1nc(-c2cccc(Br)c2)cs1)c1nc2cc(Cl)c(N3CCCCC3)cc2n1CCOCCO", "note": "(stereo not drawn)", "Potency": "inconclusive: 15.8 µM [inhibitor, single point]"}, {"compound": "C/C(=N\\NC(N)=S)C1(C)CCCCC1", "Potency": "inconclusive: 11.2 µM [inhibitor, partial curve, poor fit]"}, {"compound": "C/C(=N\\NC(=O)COc1ccccc1F)c1cc2ccccc2o1", "Potency": "inconclusive: 22.4 µM [inhibitor, partial curve, poor fit]"}, {"compound": "Cc1ccc(C)c(NS(=O)(=O)c2cc3c(cc2Cl)NC(=O)CO3)c1", "Potency": "inactive"}, {"compound": "Cc1[nH]nc(Nc2ccc(C(C)C)cc2)c1[N+](=O)[O-]", "Potency": "inconclusive: 1.26 µM [inhibitor, full curve, poor fit]"}, {"compound": "Cc1ccc2oc3c(c(=O)c2c1)C(c1ccc(F)cc1)N(c1nc(C)c(C)s1)C3=O", "note": "(stereo not drawn)", "Potency": "inconclusive: 7.94 µM [inhibitor, partial curve, poor fit]"}, {"compound": "COc1cccc(C2=NOC(C(=O)Nc3ccc(OC)c(OC)c3)C2)c1", "note": "(stereo not drawn)", "Potency": "inconclusive: 12.6 µM [inhibitor, partial curve, poor fit]"}, {"compound": "O=c1c2ccccc2[nH]c(=S)n1C1CCCCC1", "Potency": "inactive"}, {"compound": "COc1ccc(NC(=O)c2nc3nc(C)cc(C(F)F)n3n2)c(C)c1", "Potency": "inactive"}, {"compound": "O=[N+]([O-])c1ccc2c(c1)C(=NO)c1cc(Cl)c(Cl)cc1-2", "Potency": "inconclusive: 12.6 µM [inhibitor, single point]"}, {"compound": "CCCP(=O)(CCC)CCP(=O)(c1ccccc1)c1ccccc1", "Potency": "inactive"}, {"compound": "Cc1ccc(CSc2nc3ccccc3cc2C=O)cc1", "Potency": "inconclusive: 35.5 µM [inhibitor, single point]"}, {"compound": "CCOC(=O)C1(Cc2cccc(F)c2)CCN(C(=O)C2CCCO2)CC1", "note": "(stereo not drawn)", "Potency": "inconclusive: 0.282 µM [inhibitor, full curve, poor fit]"}, {"compound": "Cc1cnc(C(=O)Nc2ccc(C)c(S(=O)(=O)N(C)C)c2)cn1", "Potency": "inactive"}, {"compound": "O=C(Cn1c2ccccc2c(=O)c2ccccc21)Nc1cccc(F)c1", "Potency": "inactive"}, {"compound": "COc1ccc(C(=O)/C(=C/O)N=Nc2ccc(F)cc2)cc1", "Potency": "inconclusive: 22.4 µM [inhibitor, single point]"}, {"compound": "CCOc1ccccc1NC(=O)CN1C(=O)C2(SCC(=O)N2c2cccc(F)c2)c2ccccc21", "note": "(stereo not drawn)", "Potency": "inactive"}, {"compound": "O=C(Nc1ccc(F)c(Cl)c1)c1cc(S(=O)(=O)N2CCCc3ccccc32)ccc1F", "Potency": "inconclusive: 10 µM [inhibitor, partial curve, poor fit]"}, {"compound": "Cc1c(Cl)cccc1NC(=O)CCn1nc(C)c2c(C)n(-c3ccccc3)nc2c1=O", "Potency": "inactive"}, {"compound": "COc1ccc(S(=O)(=O)N(CC(=O)NCc2ccc(C)cc2)c2ccc(Cl)cc2)cc1", "Potency": "inconclusive: 20 µM [inhibitor, partial curve, poor fit]"}, {"compound": "O=C1CCC(C(=O)Nc2cccc(S(=O)(=O)Nc3ccccc3F)c2)=NN1", "Potency": "inactive"}, {"compound": "COc1ccc(C(C)=NNc2ccc([N+](=O)[O-])cc2S(=O)(=O)Nc2ccccc2C(=O)O)c(OC)c1", "Potency": "inconclusive: 22.4 µM [inhibitor, single point]"}, {"compound": "O=C(Nc1ccc2c(c1)OCO2)C1CCN(C(=O)CSc2ncnc3ccccc23)CC1", "Potency": "inconclusive: 0.355 µM [inhibitor, full curve, poor fit]"}, {"compound": "COc1cccc(-c2cc(C(=O)Nc3ccc(C)cc3)[nH]n2)c1", "Potency": "inactive"}, {"compound": "CCCC(=O)N(c1ccc(C(=O)O)cc1)c1nc(-c2ccccc2)c(C)s1", "Potency": "inactive"}, {"compound": "CCc1nc2ccc(C(=O)NCc3ccccc3OC)cn2c1N(CCC(C)C)CCN(C)C", "Potency": "inconclusive: 25.1 µM [inhibitor, single point]"}, {"compound": "Cc1ccccc1NC(=O)c1cccc(N2C(=O)C3C4CCC(C4)C3C2=O)c1", "note": "(stereo not drawn)", "Potency": "inactive"}, {"compound": "CN1CCN(S(=O)(=O)c2cccc(C(=O)N(C)CC(=O)Nc3ccc(Cl)c(Cl)c3)c2)CC1", "Potency": "inconclusive: 15.8 µM [inhibitor, partial curve]"}, {"compound": "COc1ccc([C@H]2/C=C\\CN(S(C)(=O)=O)[C@@H](C)C(=O)N2Cc2ccc(F)cc2)cc1", "Potency": "inconclusive: 35.5 µM [inhibitor, single point]"}, {"compound": "CN1CCN(C2=Nc3c(Cl)cc(Cl)c4cccc2c34)CC1", "Potency": "inconclusive: 14.1 µM [inhibitor, partial curve, poor fit]"}, {"compound": "CCCCNC(=O)CCCCCNS(=O)(=O)c1ccc(OC)cc1", "Potency": "inconclusive: 35.5 µM [inhibitor, single point]"}, {"compound": "CCCn1c(SCC(=O)N2c3ccccc3CC2C)nnc1-c1ccco1", "note": "(stereo not drawn)", "Potency": "inactive"}, {"compound": "Cc1ccc(O)c(NC(=O)c2cccc(S(=O)(=O)N3CCCCC3)c2)c1", "Potency": "inactive"}, {"compound": "COc1ccc2c(c1)c(C)cc[n+]2Cc1ccccc1", "Potency": "inconclusive: 10 µM [inhibitor, partial curve, poor fit]"}, {"compound": "CCOc1ccc(OCC)c(NC(=O)CCc2c(C)nc3c(c2C)c(=O)n(C)c(=O)n3C)c1", "Potency": "inconclusive: 6.31 µM [inhibitor, single point]"}, {"compound": "N#Cc1c(-c2ccccc2)c(-c2ccccc2)nn(CC(=O)NNC(=O)Nc2ccccc2)c1=O", "Potency": "inactive"}, {"compound": "CCc1nnc(N/N=C/c2cc(Br)c(O)cc2O)n1N", "Potency": "active: 7.94 µM"}, {"compound": "CCC(=Nc1ccccc1O)C1=C(O)CC(c2ccccc2)CC1=O", "note": "(stereo not drawn)", "Potency": "inconclusive: 14.1 µM [inhibitor, single point]"}, {"compound": "CC12CCC(=O)N1C(C(=O)Nc1cc(C(F)(F)F)ccc1N1CCCCC1)CS2", "note": "(stereo not drawn)", "Potency": "inconclusive: 11.2 µM [inhibitor, partial curve]"}, {"compound": "COC(=O)N/N=C/c1cn(CCOc2ccc(OC)cc2)c2ccccc12", "Potency": "inconclusive: 11.2 µM [inhibitor, partial curve, poor fit]"}, {"compound": "Cc1cccc(OC(C)C(=O)Nc2nc(-c3ccncc3)cs2)c1", "note": "(stereo not drawn)", "Potency": "inconclusive: 35.5 µM [inhibitor, single point]"}, {"compound": "CCOc1ccc(C(=O)Nc2ccc3nc(SCc4ccccc4)sc3c2)cc1", "Potency": "inconclusive: 6.31 µM [inhibitor, single point]"}, {"compound": "COc1ccccc1C1=NNC(=Nc2cccc(S(=O)(=O)N(C)C)c2)SC1", "Potency": "inactive"}, {"compound": "CCOc1ccc(CNC2CCCc3ccccc32)cc1", "note": "(stereo not drawn)", "Potency": "inconclusive: 22.4 µM [inhibitor, single point]"}, {"compound": "N#Cc1cc(S(=O)(=O)c2ccccc2)c(N)[nH]c1=O", "Potency": "inconclusive: 35.5 µM [inhibitor, single point]"}, {"compound": "Cc1ccc(N2CCN(CC(O)COc3cccc(C)c3)CC2)cc1", "note": "(stereo not drawn)", "Potency": "inactive"}, {"compound": "CCOC(=O)c1c(C)n(CCNC(C)=O)c2ccc(OC)cc12", "Potency": "inactive"}]}]}
